This note sets out measurements from the supplement of paper PMC10126150.

Sequences with one replicate were seen in a single cluster, so their values are uncertain.
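Also: ATP exposure 15 min at 22 °C before imaging.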

The data set concerns ATP. The data set can be described thus: switch fluorescence ratio, 500 uM ATP over buffer (Cy3 cluster intensity, sum of 5 cycles each) (fold (ratio)); higher = stronger signal-on switching upon ATP binding; sequences stand for … in TCGTCGGCAGCGTCAGATGTGTATAAGAGACAGTTTTTTTTTTTTTTTTTTTTTTTTT…TC. Conditions: aptamer strand: ATP DNA aptamer (quencher-CACCTGGGGGAGTATTGCGGAGGAAGG + anchor), 100 nM annealed; ATP concentration: 500 uM; one replicate. Put shortly:
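After annealing to 100 nM quencher-labelled ATP aptamer, Cy3-labelled switching-strand clusters on a modified Illumina MiSeq flow-cell were imaged in selection buffer. A second image followed after 15 min with 500 uM ATP at 22 °C, and five such buffer/ATP cycles were done, each separated by NaOH stripping and re-annealing. The fluorescence ratio, averaged per switch-domain sequence, is summed target-cycle over summed buffer-cycle Cy3 intensity per cluster, with clusters outside 100-1000 RFU excluded.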
Regarding ATATGATATG, the switch fluorescence ratio was found to be 1.02.

With CCTACCGTTG, the switch fluorescence ratio is 1.75.

GAGATAGTTG: the switch fluorescence ratio came out at 1.

As for CCACAGGTTA, the switch fluorescence ratio was 1.6.

As for GAGTTTATAG, the switch fluorescence ratio was 1.01.

Consider ATTCTAAAAG, for which the switch fluorescence ratio came to 0.996.

ACAGCTACGA: the switch fluorescence ratio is 1.27.

Turning to ACGTTAGGAA, the switch fluorescence ratio was 0.989.

For GCCTGTTCTG, the switch fluorescence ratio came to 1.

For the sequence TTAACGGATA, the switch fluorescence ratio stood at 0.998.

As for TACAAGAGTT, the switch fluorescence ratio came out at 1.05.

For ACAAAGACGG, the switch fluorescence ratio worked out at 1.11.

For GCCGACAACG, the switch fluorescence ratio is 1.05.

For the sequence GGACCCCCGC, the switch fluorescence ratio worked out at 1.33.

For the sequence GAACTGCCCG, the switch fluorescence ratio was 1.03.

Turning to TCAGTGTATT, the switch fluorescence ratio is 0.98.

With ACCTCCGTGG, the switch fluorescence ratio was determined as 1.59.

In the case of TGATGTTTTA, the switch fluorescence ratio worked out at 0.975.

With TGCGCGACCG, the switch fluorescence ratio is 1.02.

Take GCCAAGCCGG: the switch fluorescence ratio was 0.999.

Consider AGTTAGAACT, for which the switch fluorescence ratio was determined as 1.

AGTAGCGACG: the switch fluorescence ratio amounted to 0.971.

Turning to TCCATCAATA, the switch fluorescence ratio was found to be 1.28.

With TATCGTCACC, the switch fluorescence ratio is 1.04.

For GTCATAATGT, the switch fluorescence ratio was 0.985.

With CAATGGTGCT, the switch fluorescence ratio came to 1.02.

Regarding CACATACATC, the switch fluorescence ratio was found to be 1.34.

For the sequence CGATTGCTAT, the switch fluorescence ratio came to 1.23.

For TCCACGTTTG, the switch fluorescence ratio turned out to be 1.03.

With AACTTCGGGC, the switch fluorescence ratio turned out to be 1.04.

Take ATCGATGATA: the switch fluorescence ratio was 1.02.

As for GTCGATAGAG, the switch fluorescence ratio is 0.966.

As for TGACTGGGCA, the switch fluorescence ratio was found to be 0.934.

ATACGGCATC: the switch fluorescence ratio was determined as 1.07.

TATCCCGAGT: the switch fluorescence ratio is 0.997.

As for ATGCAACTCT, the switch fluorescence ratio is 0.974.

Take TCTGGGCCCA: the switch fluorescence ratio is 1.03.

As to AGGACGTTCC, the switch fluorescence ratio was 1.26.

CCCGGGCGGC: the switch fluorescence ratio was found to be 0.981.

TAAACCATTA: the switch fluorescence ratio was found to be 1.04.

For CACTCTCTTT, the switch fluorescence ratio worked out at 1.03.

Regarding GATGGAGTC, the switch fluorescence ratio was found to be 1.01.

Regarding TATGACCGA, the switch fluorescence ratio worked out at 0.993.

As to CCCGAGATTA, the switch fluorescence ratio is 1.02.

Regarding ACATCGTCTC, the switch fluorescence ratio amounted to 0.982.

Consider CTACACCTGT, for which the switch fluorescence ratio turned out to be 1.02.

Take AGGATGGGTC: the switch fluorescence ratio was determined as 1.

As for CTGTGAGTGG, the switch fluorescence ratio was found to be 0.971.

Take TCGTTCTGTA: the switch fluorescence ratio was 0.984.

Consider ACGCAACGCG, for which the switch fluorescence ratio worked out at 1.01.

As for ATTAACATCG, the switch fluorescence ratio was 1.06.

Take AGCAGTGCCC: the switch fluorescence ratio amounted to 1.18.

Take TTACCCGATT: the switch fluorescence ratio was determined as 0.992.

In the case of TGCACATCGA, the switch fluorescence ratio amounted to 0.951.

As for AGGGCCAACG, the switch fluorescence ratio is 1.03.

As to CTTGGACTA, the switch fluorescence ratio was 0.997.

Regarding AACATTTGA, the switch fluorescence ratio worked out at 1.03.

Regarding AAATATCAGT, the switch fluorescence ratio was 1.

For TACAAAAGCG, the switch fluorescence ratio was found to be 0.997.

TCGGCTAGGG: the switch fluorescence ratio worked out at 0.994.

Regarding TTACGGAGTT, the switch fluorescence ratio amounted to 1.07.

As to AATTAGCCGT, the switch fluorescence ratio was 0.917.

As for AATTTGTCGA, the switch fluorescence ratio was determined as 0.987.

With ACAATACAAA, the switch fluorescence ratio came out at 1.07.

Take GCCTGTTTCG: the switch fluorescence ratio was 1.06.

For the sequence CAGGTGAGGT, the switch fluorescence ratio came to 1.44.

TCTCAGTACA: the switch fluorescence ratio was found to be 1.04.

On to TGCTGATTTT, for which the switch fluorescence ratio was found to be 0.99.

For AATCTGTCGC, the switch fluorescence ratio is 1.03.

As for CATAGTCTCT, the switch fluorescence ratio was found to be 0.998.

Regarding CGACATTTTC, the switch fluorescence ratio was 1.04.

As for GGAACAGTAT, the switch fluorescence ratio was 0.992.

As to TGATGTGCAC, the switch fluorescence ratio is 0.913.

For the sequence CTTGCGGTTT, the switch fluorescence ratio stood at 1.03.

On to TACACCATAT, for which the switch fluorescence ratio amounted to 1.12.

As for CAAGACGGCT, the switch fluorescence ratio was determined as 1.02.

Regarding TAACTCTTA, the switch fluorescence ratio stood at 0.973.

Take TGCTTTCTG: the switch fluorescence ratio was found to be 1.02.

ATGCTCTTGG: the switch fluorescence ratio amounted to 1.02.

Turning to TATCGAGAT, the switch fluorescence ratio was 0.967.

For the sequence ATGGTCGGCT, the switch fluorescence ratio stood at 1.03.

Consider GGGTGACACG, for which the switch fluorescence ratio was 0.965.

Regarding CCTGTAAACT, the switch fluorescence ratio came to 1.06.

As for ATCGTTTTCT, the switch fluorescence ratio turned out to be 1.02.

Turning to ATTGAATCTT, the switch fluorescence ratio was found to be 1.01.

With TACTCACATA, the switch fluorescence ratio was 1.36.

TATAAAATGG: the switch fluorescence ratio is 1.

Regarding TTGCGAGTGC, the switch fluorescence ratio was 1.08.

In the case of ATTATAGAT, the switch fluorescence ratio came out at 1.02.

For the sequence GCTTTTAGGC, the switch fluorescence ratio came to 1.12.

Turning to TTCGCGCGCA, the switch fluorescence ratio is 1.09.

AAGCTCCCAC: the switch fluorescence ratio turned out to be 1.16.

As for TCGGGGATAA, the switch fluorescence ratio is 1.01.

For the sequence GGTGCCGAGA, the switch fluorescence ratio was found to be 0.96.

TGATACTTTA: the switch fluorescence ratio worked out at 1.01.

GGCGTCATGC: the switch fluorescence ratio was found to be 0.979.

With TCTCACAGCA, the switch fluorescence ratio is 1.22.

Turning to AGGGTGCCTG, the switch fluorescence ratio was determined as 1.06.

Turning to TGTTGAACGG, the switch fluorescence ratio was determined as 1.06.

Take CAAGATGTTA: the switch fluorescence ratio came out at 1.02.

Turning to CATGGGACCA, the switch fluorescence ratio is 1.02.

As for GAAATCAAAG, the switch fluorescence ratio was found to be 1.01.

With CAGATTGATT, the switch fluorescence ratio was found to be 0.962.

Take GTTGCAACTA: the switch fluorescence ratio was determined as 1.02.

For the sequence AGATTGAAG, the switch fluorescence ratio is 1.03.

Turning to TATCATTTGG, the switch fluorescence ratio was 1.

For ACTCGCTAAT, the switch fluorescence ratio came to 1.52.

Consider CGTGGGGG, for which the switch fluorescence ratio was found to be 0.989.

Turning to AATTGATGCA, the switch fluorescence ratio came out at 1.09.

For the sequence GCGGGCAAGG, the switch fluorescence ratio is 1.03.

Consider CGTTCATTTT, for which the switch fluorescence ratio is 1.03.

Turning to ATTGTTAAAC, the switch fluorescence ratio amounted to 1.01.

For the sequence CGTCAAGTGT, the switch fluorescence ratio amounted to 1.

Consider ATCCCGTGGT, for which the switch fluorescence ratio worked out at 1.03.

On to CTACACCAAA, for which the switch fluorescence ratio amounted to 1.02.

For ATTTGAAATT, the switch fluorescence ratio is 0.971.

Consider AGACGAGAAC, for which the switch fluorescence ratio was determined as 1.09.

For TAGAATTCAT, the switch fluorescence ratio was 1.01.

As for TTTCCTTGGT, the switch fluorescence ratio worked out at 1.01.

On to GCCGTAAGGC, for which the switch fluorescence ratio was 1.03.
